Assay results from the supplement of paper PMC10369915.
This is one part of the list. Cut-off read from the data, not from the text of the source: active = 3.2 or more and inactive = the rest. Only a few entries rise above the background.

Legend:
Experiment in all cases: enrichment score (SH2-bound / input frequency) (ratio); bacterial display of known human phosphotyrosine sites (pTyr-Var adds point mutants) read by sequencing; higher = stronger binding; tyrosines were phosphorylated by kinases first
Settings in all cases: peptide library: pTyr-Var
[1] = target: SHP2 C-SH2 domain E139D
[2] = target: SHP2 C-SH2 domain wild-type
[3] = target: SHP2 N-SH2 domain L43F
[4] = target: SHP2 N-SH2 domain T42A
[5] = target: SHP2 N-SH2 domain T52S
[6] = target: SHP2 N-SH2 domain wild-type
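Note: displayed peptides selected on beads carrying the immobilized SH2 domain, with library peptides lacking any tyrosine serving as negative controls.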

Binder	enrichment score [1]	enrichment score [2]	enrichment score [3]	enrichment score [4]	enrichment score [5]	enrichment score [6]
SLLPDYEDEEE [ZNF830_Y159]	inactive: 0.414	inactive: 0.557	inactive: 0.484	inactive: 0.373	inactive: 0.481	inactive: 0.644
TLLPDYEDEEE [ZNF830_Y159_S154T]	inactive: 0.553	inactive: 0.532	inactive: 0.567	inactive: 0.493	inactive: 0.355	inactive: 0.637
YNDSTYNQQLI [ZPLD1_Y198]	inactive: 0.614	inactive: 0.409	inactive: 0.488	inactive: 0.385	inactive: 0.522	inactive: 0.573
FNDSAYNQQLI [ZPLD1_Y198_T197A_YF]	inactive: 0.674	inactive: 0.697	inactive: 0.773	inactive: 0.791	inactive: 0.67	inactive: 0.916
AHPIIYTIIEA [PYKtide_no-pT_2014]	inactive: 1.84	inactive: 2.22	active: 4.46	active: 7.92	active: 4.91	inactive: 2.33
ADEEYYEIIAA [FEStide_no-pY_2014]	inactive: 1.08	inactive: 0.996	inactive: 0.929	inactive: 1.06	inactive: 1.25	inactive: 0.954
ADEEEYEIIAA [FEStide_E_2014]	inactive: 0.575	inactive: 0.792	inactive: 0.665	inactive: 0.518	inactive: 0.468	inactive: 1.02
AEDEDYESVGA [SYKtide_2014]	inactive: 0.793	inactive: 0.508	inactive: 0.472	inactive: 0.579	inactive: 0.504	inactive: 0.646
GEDPIYVTLEG [RTKtide_2018]	inactive: 0.755	inactive: 0.667	inactive: 0.754	inactive: 0.823	inactive: 0.824	inactive: 0.751
GDEAIYATVAG [NRTKtide_2018]	inactive: 0.606	inactive: 0.641	inactive: 0.576	inactive: 0.604	inactive: 0.684	inactive: 0.852
GEDDVYDSVPG [FGR_opt_2018]	inactive: 0.451	inactive: 0.398	inactive: 0.417	inactive: 0.452	inactive: 0.459	inactive: 0.452
GDEEDYYEIPG [EGFR_opt_no-pY_2015]	inactive: 0.715	inactive: 1.01	inactive: 1.15	inactive: 0.811	inactive: 0.563	inactive: 1.01
LHVGFYESDVM [A2M_Y708_R704H]	inactive: 1.92	inactive: 1.19	inactive: 1.19	inactive: 1.48	inactive: 1.97	inactive: 1.67
ATVLNYLPKCI [A2M_Y817]	inactive: 1.19	inactive: 1.37	inactive: 0.893	inactive: 1.19	inactive: 0.789	inactive: 1.28
DRVALYIAREG [AACS_Y117]	inactive: 0.872	inactive: 0.807	inactive: 0.82	inactive: 0.68	inactive: 0.816	inactive: 1.02
DRVALYVAREG [AACS_Y117_I118V]	inactive: 0.859	inactive: 0.816	inactive: 0.739	inactive: 0.487	inactive: 0.628	inactive: 0.931
TTGLIYIGSHD [AASDH_Y870]	inactive: 0.83	inactive: 0.964	inactive: 0.958	inactive: 0.972	inactive: 1.02	inactive: 1.04
ATGLIYIGSHD [AASDH_Y870_T865A]	inactive: 1.03	inactive: 1.07	inactive: 1.13	inactive: 1.03	inactive: 1.28	inactive: 0.901
